One assay concerns HSkMC. The assay can be described thus: cytotoxicity call (relative viability < 0.9). The settings on record: 10 µM.
In the next assay the test system is HepG2. The assay can be described thus: cytotoxicity call (relative viability < 0.9). The conditions noted are these: 10 µM.
Another assay has as its system S. aureus RN4220. In words: growth inhibition call (relative growth <= 0.2). The settings on record: 50 µM.

The list shows a part of the results.

For `Cc1ccc(S(=O)(=O)N2C[C@H](O)COC[C@@H]3O[C@@H](CC(=O)N[C@H]4CCN(Cc5ccccc5)C4)CC[C@H]32)cc1`, the cytotoxicity call in the assay with HSkMC and with HepG2 was “inactive” in each case. The growth inhibition call in the assay on S. aureus RN4220 is “inactive”.

Consider `C[C@@H]1CN([C@H](C)CO)C(=O)c2cc(N(C)C)ccc2O[C@@H](C)CCCCO[C@H]1CN(C)S(C)(=O)=O`, for which the cytotoxicity call in the assay on HSkMC and with HepG2 was “inactive” in each case. For the same molecule, the growth inhibition call in the assay on S. aureus RN4220 is “inactive”.

As for `CCCCCN1CC=C[C@]23O[C@@H]4/C=C/CCC(=O)N(C)[C@H](C)[C@@H](c5ccccc5)OC(=O)[C@@H]4[C@H]2C(=O)N(c2ccccc2Cl)[C@@H]3C1=O`, the cytotoxicity call in the assay with HSkMC and with HepG2 was “inactive” each time. Further, the growth inhibition call in the assay with S. aureus RN4220 was “inactive”.

For the molecule `C[C@@H]1CN(C(=N)N)C[C@H](C)O1`, the cytotoxicity call in the assay with HSkMC and with HepG2 was “inactive” each time. Further, in the assay with S. aureus RN4220, the growth inhibition call is “inactive”.

As to `C[C@H](CO)N1C[C@H](C)[C@H](CN(C)Cc2ccc3c(c2)OCO3)OCCCC[C@H](C)Oc2ccc(NC(=O)Nc3ccccc3)cc2C1=O`, the cytotoxicity call in the assay on HSkMC was “inactive”. In addition, in the assay on HepG2, the cytotoxicity call is “active”. For the same molecule, the growth inhibition call in the assay on S. aureus RN4220 is “inactive”.

For `C[C@@H]1CN([C@@H](C)CO)C(=O)c2cc(-c3cccc(C#N)c3)cnc2O[C@@H]1CN(C)C(=O)C1CCOCC1`, the cytotoxicity call in the assay with HSkMC and with HepG2 was “inactive” throughout. In the assay on S. aureus RN4220, the growth inhibition call is “inactive”.

As to `Cn1c([N+](=O)[O-])cnc1COC(N)=O`, the cytotoxicity call in the assay with HSkMC and with HepG2 was “inactive” in each case. For the same molecule, the growth inhibition call in the assay with S. aureus RN4220 was “inactive”.

Turning to `C[C@H](CO)N1C[C@H](C)[C@H](CN(C)Cc2ccc(Oc3ccccc3)cc2)Oc2c(NC(=O)c3ccc(-c4nccs4)cc3)cccc2C1=O`, the cytotoxicity call in the assay with HSkMC was “active”. The cytotoxicity call in the assay with HepG2 was “inactive”. Further, in the assay on S. aureus RN4220, the growth inhibition call is “inactive”.

With `O=C(CN1CCOCC1)N[C@@H]1CC[C@H](CCNC(=O)C2CCCCC2)O[C@H]1CO`, the cytotoxicity call in the assay with HSkMC and in the assay with HepG2 was “inactive” each time. Moreover, the growth inhibition call with S. aureus RN4220 is “inactive”.

As to `C[C@@H]1CN([C@H](C)CO)C(=O)CCCn2nncc2CO[C@H]1CN(C)S(=O)(=O)c1ccc(-n2cccn2)cc1`, the cytotoxicity call in the assay with HSkMC and in the assay with HepG2 was “inactive” in each case. The growth inhibition call in the assay on S. aureus RN4220 was “inactive”.

In the case of `CC(C)NC(=O)Nc1ccc2c(c1)C(=O)N([C@@H](C)CO)C[C@H](C)[C@H](CN(C)CC1CCCCC1)OCCCC[C@H](C)O2`, the cytotoxicity call in the assay on HSkMC and with HepG2 was “inactive” each time. The growth inhibition call with S. aureus RN4220 was “inactive”.

As for `CN(C)CCCNC(=O)C[C@H]1CC[C@H]2[C@H](COc3ccc(NC(=O)c4ccc5c(c4)OCO5)cc3C(=O)N2C)O1`, the cytotoxicity call in the assay with HSkMC and with HepG2 was “inactive” throughout. In addition, the growth inhibition call in the assay with S. aureus RN4220 is “inactive”.

As for `OCc1ccccn1`, the cytotoxicity call in the assay on HSkMC and in the assay with HepG2 was “inactive” in each case. Besides, the growth inhibition call in the assay with S. aureus RN4220 was “inactive”.

Consider `C[C@H](CO)N1C[C@H](C)[C@H](CN(C)CC2CCOCC2)Oc2cc(C#Cc3cccnc3)ccc2S1(=O)=O`, for which the cytotoxicity call with HSkMC and with HepG2 was “inactive” throughout. Moreover, in the assay with S. aureus RN4220, the growth inhibition call is “inactive”.

Take `COc1cccc(C(=O)Nc2ccc3c(c2)C(=O)N(C)[C@@H]2CC[C@@H](CC(=O)NCC4CC4)O[C@H]2CO3)c1`: the cytotoxicity call in the assay on HSkMC and in the assay on HepG2 was “inactive” each time. In addition, the growth inhibition call in the assay on S. aureus RN4220 was “inactive”.

For `COc1ccc(NC(=O)Nc2ccc3c(c2)CC(=O)N([C@H](C)CO)C[C@@H](C)[C@H](CN(C)Cc2ccc(Cl)c(Cl)c2)O3)cc1`, in the assay with HSkMC, the cytotoxicity call is “inactive”. Also, in the assay on HepG2, the cytotoxicity call is “active”. Further, the growth inhibition call in the assay on S. aureus RN4220 is “inactive”.

In the case of `C[C@H](CO)N1C[C@H](C)[C@H](CN(C)C(=O)NC2CCCCC2)Oc2ccc(NC(=O)C3CC3)cc2C1=O`, the cytotoxicity call in the assay on HSkMC and with HepG2 was “inactive” each time. In addition, in the assay on S. aureus RN4220, the growth inhibition call was “inactive”.

For `C[C@H]1CN([C@@H](C)CO)C(=O)c2cccc(NC(=O)c3ccncc3)c2O[C@H]1CN(C)C(=O)Nc1ccc2c(c1)OCO2`, the cytotoxicity call with HSkMC and with HepG2 was “inactive” in each case. For the same molecule, the growth inhibition call with S. aureus RN4220 is “inactive”.

With `NCc1ccc2cc[nH]c(=O)c2c1`, the cytotoxicity call with HSkMC and in the assay on HepG2 was “inactive” throughout. The growth inhibition call in the assay on S. aureus RN4220 is “inactive”.

As to `O=C(C[C@H]1C=C[C@@H](NC(=O)Cc2ccccn2)[C@H](CO)O1)NCCc1ccncc1`, the cytotoxicity call in the assay on HSkMC and with HepG2 was “inactive” each time. The growth inhibition call in the assay on S. aureus RN4220 was “inactive”.

In the case of `C[C@H]1CN([C@@H](C)CO)C(=O)Cc2cc(NC(=O)CCN3CCOCC3)ccc2O[C@H]1CN(C)C(=O)Nc1ccc2c(c1)OCO2`, the cytotoxicity call in the assay on HSkMC and with HepG2 was “inactive” throughout. Further, the growth inhibition call in the assay on S. aureus RN4220 was “inactive”.

On to `CC(C)CC#Cc1ccc2c(c1)O[C@@H](CN(C)C(=O)Cc1ccncc1)[C@@H](C)CN([C@@H](C)CO)S2(=O)=O`, for which the cytotoxicity call in the assay on HSkMC and in the assay on HepG2 was “inactive” in each case. The growth inhibition call with S. aureus RN4220 is “inactive”.

On to `CC(C)NC(=O)Nc1ccc2c(c1)C(=O)N([C@H](C)CO)C[C@@H](C)[C@@H](CN(C)Cc1ccc(C(=O)O)cc1)O2`, for which the cytotoxicity call in the assay with HSkMC and with HepG2 was “inactive” each time. Moreover, the growth inhibition call in the assay with S. aureus RN4220 is “inactive”.

Regarding `C[C@H](CO)N1C[C@H](C)[C@H](CN(C)C(=O)Nc2ccc(F)cc2)Oc2ccc(NC(=O)CCCCCC(=O)Nc3ccccc3N)cc2CC1=O`, the cytotoxicity call with HSkMC and with HepG2 was “inactive” in each case. The growth inhibition call with S. aureus RN4220 was “inactive”.

With `C[C@@H]1CN([C@@H](C)CO)C(=O)Cc2cc(NC(=O)Nc3cccc4ccccc34)ccc2O[C@@H]1CN(C)C(=O)Nc1cccc2ccccc12`, the cytotoxicity call in the assay on HSkMC (human skeletal muscle cells) and in the assay on HepG2 was “inactive” each time. In addition, the growth inhibition call with S. aureus RN4220 was “inactive”.

With `C[C@@H]1CCCCO[C@@H](CN(C)C(=O)Nc2ccc3c(c2)OCO3)[C@H](C)CN([C@H](C)CO)C(=O)c2cc(NC(=O)NC3CCCCC3)ccc2O1`, the cytotoxicity call with HSkMC and in the assay on HepG2 was “inactive” throughout. Also, in the assay with S. aureus RN4220, the growth inhibition call was “inactive”.

On to `Cc1cc(C)c(C#N)c(=O)[nH]1`, for which the cytotoxicity call in the assay with HSkMC and in the assay on HepG2 was “inactive” in each case. In addition, the growth inhibition call in the assay on S. aureus RN4220 was “inactive”.

Take `C[C@H](CO)N1C[C@H](C)[C@H](CN(C)C(=O)C2CCCCC2)Oc2cc(C#CCN(C)C)ccc2S1(=O)=O`: the cytotoxicity call in the assay with HSkMC and with HepG2 was “inactive” throughout. The growth inhibition call in the assay on S. aureus RN4220 was “inactive”.
